Laboratory results published in PubChem BioAssay AID624417 (National Center for Advancing Translational Sciences (NCATS), 2012).
About 6,400 (1.6%) of roughly 410,000 compounds were called active. This list was built around the results that the source calls inconclusive (neither active nor inactive); the mix of calls is not that of the screen. Calls come from the whole dose curve; as a rule, active = well fitted inhibition curve with a large enough effect; inconclusive = small, poorly fitted or top-dose-only effect; inactive = no such curve, though single readings can be large or run the other way. Potencies of inconclusive entries are left out as doubtful fits.

target: Glucagon-like peptide 1 receptor (Homo sapiens) (UniProt P43220); assay: qHTS of GLP-1 Receptor Inverse Agonists (Inhibition Mode); details: HEK293 GLP-1R CRE-luciferase, luminescence, 24 h, GLP-1R form is constitutively active; activity change, negative = inhibition: at 38.3 µM (top of the series) unless noted; note: nearly all actives have a fitted effect of over 55% in size
Sequence of UniProt P43220 (P43220 whole entry, looked up): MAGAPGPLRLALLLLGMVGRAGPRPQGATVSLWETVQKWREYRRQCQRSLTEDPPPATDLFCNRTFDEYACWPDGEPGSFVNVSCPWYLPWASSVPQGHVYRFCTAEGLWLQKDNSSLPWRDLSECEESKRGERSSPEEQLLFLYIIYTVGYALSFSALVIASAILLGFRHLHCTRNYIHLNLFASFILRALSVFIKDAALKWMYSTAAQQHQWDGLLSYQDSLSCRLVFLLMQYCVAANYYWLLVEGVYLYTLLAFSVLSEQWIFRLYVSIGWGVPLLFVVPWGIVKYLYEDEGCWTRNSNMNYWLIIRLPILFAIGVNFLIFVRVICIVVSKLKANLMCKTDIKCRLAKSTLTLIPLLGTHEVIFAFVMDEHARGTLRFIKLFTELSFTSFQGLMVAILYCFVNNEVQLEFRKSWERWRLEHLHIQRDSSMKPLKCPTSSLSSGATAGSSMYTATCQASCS
How it was run: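 Assay principle: reduced luminescence from a cAMP-responsive reporter in HEK293 cells co-expressing a constitutively active GLP-1R. Conditions: 24 hr compound incubation, 37 deg C, 5% CO2.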
% is set by controls: 0 for no effect and ±100 for the full control effect; potency is the fitted concentration of half-maximal effect; tags give direction and shape of the fitted curve.

Row | Compound | Potency | activity change, negative = inhibition
1 | COc1ccccc1N1CCN(C(=O)CNC(=O)c2ccc(Cl)cc2Cl)CC1 | inconclusive [inhibitor, partial curve, poor fit] | –
2 | O=C(CCS(=O)(=O)c1nc(-c2ccc3c(c2)OCO3)cc(C(F)(F)F)n1)Nc1ccccc1C(F)(F)F | inconclusive [inhibitor, single point] | –
3 | COCCN(C)Cc1cn(-c2ccc(F)cc2F)nc1-c1ccccc1C | inconclusive [inhibitor, partial curve, poor fit] | –
4 | CN(C)c1ccc(/C=N/NC(=O)c2ccccc2)cc1 | inconclusive [inhibitor, partial curve, poor fit] | –
5 | Cc1cc(/C=C2\SC(=Nc3ccccc3)NC2=O)c(C)n1-c1ccc(S(N)(=O)=O)cc1 | inconclusive [inhibitor, partial curve, poor fit] | –
6 | COc1ccc(OC2C(=O)N(CCc3ccc(OC)c(OC)c3)C2c2ccc3c(c2)OCO3)cc1 (configuration not stated) | inconclusive [inhibitor, single point] | –
7 | CN1CCN(CCCCOc2cccc3ccccc23)CC1 | inconclusive [inhibitor, partial curve, poor fit] | –
8 | CC(C)(C)OC(=O)N1CCC(c2c(C(=O)NCC3CCN(C4CCCC4)C3)cnn2-c2ccc(F)cc2)CC1 (configuration not stated) | inconclusive [inhibitor, single point] | –
9 | COc1ccc(OCC(=O)Nc2ccc3c(c2)N(C)C(=O)c2ccccc2S3)cc1 | inconclusive [inhibitor, single point] | –
10 | CCn1c(=O)c2cc(C(=O)NCCc3ccc(OC)c(OC)c3)sc2c2ccccc21 | inactive | –
11 | O=C(O)CN1C(=O)/C(=C\c2cccc(OCc3ccc(Cl)cc3Cl)c2)SC1=S | inconclusive [inhibitor, single point] | –
12 | COc1ccc(-c2cc(C(=O)Nc3c(C(=O)c4ccc(C)c(F)c4)oc4ccccc34)no2)cc1 | inactive | –
13 | CCOc1ccc(CNC(=O)c2ccc(Sc3ccc(C)cc3)c(N)c2)cc1OC | inconclusive [inhibitor, single point] | –
14 | Cc1cccc(Oc2ccc(S(=O)(=O)N3CCCCC3)cc2NC(=O)C2=COCCO2)c1 | active: 10 µM | –
15 | COc1cccc(CNn2c(-c3cccc(C)c3)nc3ccccc3c2=O)c1 | inconclusive [inhibitor, single point] | –
16 | Cc1cccc(OCC(=O)Nc2cc(S(=O)(=O)N3CCCCC3)ccc2N2CCN(C)CC2)c1 | inconclusive [inhibitor, single point] | –
17 | COc1ccc(CCNCc2ccc(OCc3ccc(Cl)nc3)c(OC)c2)cc1OC | inconclusive [inhibitor, partial curve, poor fit] | –
18 | Cc1ccc(NC(=O)c2cnc(SCC(=O)N3CCCc4ccccc43)n(C)c2=O)cc1C | inactive | –
19 | CCN(C(=O)Cn1cnc2c1c(=O)n(C)c(=O)n2C)c1ccccc1C | inactive | –
20 | O=C(CC1C(=O)N(Cc2ccccc2)C(=S)N1CCN1CCOCC1)Nc1ccc(F)cc1 (configuration not stated) | inconclusive [inhibitor, single point] | –
21 | CCCCc1c(-c2ccccc2OC)ncn1CCc1ccc(OC)cc1 | inconclusive [inhibitor, single point] | –

Row | Compound | Potency | activity change, negative = inhibition
22 | COCCNc1nc(-c2ccc(OC)cc2C)c2sc(-c3ccccc3)cc2n1 | inconclusive [inhibitor, partial curve, poor fit] | –
23 | CCOc1ccc(N(CC(=O)Nc2cc(C)cc(C)c2)S(C)(=O)=O)cc1 | inconclusive [inhibitor, partial curve, poor fit] | –
24 | COc1ccccc1N1CCN(C(=O)c2ccco2)CC1 | inactive | –
25 | Cc1ccc(NC(=O)c2ccc3c(c2)[nH]c(=O)n3C(C)C)cc1 | inconclusive [inhibitor, single point] | –
26 | COc1ccc(N2C(=O)N3[C@H](c4ccc(Cl)cc4)[C@@H]4C(=O)N(C5CCCCC5)C(=O)[C@@H]4[C@]3(Cc3ccc(Cl)cc3)C2=O)cc1 | inconclusive [inhibitor, partial curve, poor fit] | –
27 | Cc1cc(C)cc(-n2ncc3c2CCCC3NC(=O)C2CCC2)c1 (configuration not stated) | inconclusive [inhibitor, single point] | –
28 | CC(=O)N1CCc2cc(NC(=O)C3(C)CCN3Cc3ccc(C(C)C)cc3)ccc21 (configuration not stated) | inconclusive [inhibitor, single point] | –
29 | COc1ccc(-c2c(C(F)(F)F)oc3c(CN4CCN(C)CC4)c(O)ccc3c2=O)cc1 | inconclusive [inhibitor, partial curve, poor fit] | –
30 | C=CCn1c(-c2ccc(OC)cc2)csc1=Nc1c(C)n(C)n(-c2ccccc2)c1=O | inconclusive [inhibitor, single point] | –
31 | CCN(CC(=O)NCc1ccc(Cl)cc1)C(=O)CSCC(=O)Nc1cccc(C)c1 | inconclusive [inhibitor, partial curve] | –
32 | CC1CCCN(C(=O)Cc2cn(Cc3cccc(Cl)c3)c3ccccc23)C1 (configuration not stated) | inconclusive [inhibitor, partial curve, poor fit] | –
33 | CCOC(=O)c1ccc(Nc2nc(C)nc3c2nnn3Cc2ccccc2)cc1 | inconclusive [inhibitor, single point] | –
34 | COc1ccc(/C=C/C(=O)Nc2cccc(F)c2)cc1 | inconclusive [inhibitor, single point] | –
35 | CCOC(=O)N/N=C1\CCc2ccccc21 | inactive | –
36 | CN(C)S(=O)(=O)c1ccc2c(c1)N(CC(=O)N1CCC(C(N)=O)CC1)CCS2 | inactive | –
37 | Cc1ccc(C(C(=O)NC2CCCCC2)N(Cc2ccco2)C(=O)Cn2cnc3ccccc32)cc1 (configuration not stated) | inconclusive [inhibitor, single point] | –
38 | CCC(c1nnnn1-c1c(C)cccc1C)N1CCN(CC)CC1 (configuration not stated) | inactive | –
39 | COc1ccc(C)cc1C(=O)CCC(=O)NC1CCCCC1 | inconclusive [inhibitor, partial curve, poor fit] | –
40 | O=C(Nc1ccccc1N1CCCC1)c1ccco1 | inactive | –
41 | COc1cccc(CNC(=O)Nc2ccc3c(c2)N(C)C(=O)c2ccccc2S3)c1 | inconclusive [inhibitor, partial curve, poor fit] | –
42 | COc1ccc(-c2coc3c(C(=O)Nc4cccc(C(C)=O)c4)cccc23)c(C)c1 | inconclusive [inhibitor, single point] | –

Row | Compound | Potency | activity change, negative = inhibition
43 | CO/N=C/c1ccc(Sc2ccccc2N)c([N+](=O)[O-])c1 | inconclusive [inhibitor, single point] | –
44 | O=C(COc1ccccc1Br)Nc1ccc2c(c1)OCCCO2 | inconclusive [inhibitor, single point] | –
45 | CCCOc1ccc(F)cc1-c1cc(C(=O)NC2CCCCC2)[nH]n1 | inconclusive [inhibitor, single point] | –
46 | Cc1oc2c(CN(C)C)c(O)ccc2c(=O)c1-c1ccc2ccccc2n1 | inconclusive [inhibitor, single point] | –
47 | Cc1ccnc(NC(=O)c2ccc(COc3ccc(Cl)cc3)o2)c1 | inconclusive [inhibitor, single point] | –
48 | CCCCc1ccc(NC(=O)Nc2cc(C)nn2C)cc1 | – | inconclusive: -74.1% [inhibitor]
49 | Cc1cc(-c2ccc(C)c(S(=O)(=O)NCC3CCN(Cc4cccc(F)c4)CC3)c2)on1 | inconclusive [inhibitor, partial curve, poor fit] | –
50 | O=C(c1ccccc1Cc1ccccc1)N1CCN(S(=O)(=O)c2ccccc2Br)CC1 | inconclusive [inhibitor, single point] | –
51 | O=C(CCCOc1ccc(Cl)cc1)N1CCCCC1 | inconclusive [inhibitor, single point] | –
52 | COc1ccc(C2CC(c3ccccc3Cl)=NN2c2ccc(S(N)(=O)=O)cc2)cc1 (configuration not stated) | inconclusive [inhibitor, single point] | –
53 | COCC(=O)Nc1nnc(-c2ccc(C(C)(C)C)cc2)s1 | inconclusive [inhibitor, single point] | –
54 | Cc1ccc(C)c(Cn2nnc3c(=O)[nH]c(C4CCCN(C(=O)C5CCCCC5)C4)nc32)c1 (configuration not stated) | inconclusive [inhibitor, partial curve, poor fit] | –
55 | CCCCCCCCNS(=O)(=O)CCNC1CC1 | inactive | –
56 | Cc1ccc2cc3c(nc2c1)N(Cc1ccco1)CC3 | inconclusive [inhibitor, single point] | –
57 | Brc1ccccc1OCCCN1CCCCCC1 | inconclusive [inhibitor, single point] | –
58 | CC(Oc1ccccc1F)C(=O)NCC1(N2CCOCC2)CCCCC1 (configuration not stated) | inconclusive [inhibitor, single point] | –
59 | N#Cc1nc(Cc2cccc3ccccc23)oc1NCc1ccc2c(c1)OCO2 | inconclusive [inhibitor, single point] | –
60 | COc1ccccc1C1=CC(=O)C[C@H](c2ccc(Cl)cc2)C1 | inactive | –
61 | COc1ccc(CCNC(=O)c2ccc(-c3ccc([N+](=O)[O-])cc3Cl)o2)cc1 | inconclusive [inhibitor, single point] | –
62 | CN(CC(=O)Nc1cccc(F)c1)C(=O)c1cccc(S(=O)(=O)N2CCN(c3ccccc3)CC2)c1 | inconclusive [inhibitor, single point] | –
